Results as given in article PMC4336329 (PLoS ONE, 2015).
Among all 310,000 compounds or so, about 14,000 (4.5%) showed an effect of 50% or more. The effect is printed as a negative number. The list shows a part of the results.

The compounds below were run against human ether-à-go-go-related gene (hERG) potassium channel (human, UniProt Q12809) (assay: primary screen, population patch clamp on CHO cells stably expressing hERG).
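Note: peak tail current of the secondary pulse compared with the same well before compound.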

human ether-à-go-go-related gene (hERG) potassium channel, sequence (Q12809 whole entry, looked up): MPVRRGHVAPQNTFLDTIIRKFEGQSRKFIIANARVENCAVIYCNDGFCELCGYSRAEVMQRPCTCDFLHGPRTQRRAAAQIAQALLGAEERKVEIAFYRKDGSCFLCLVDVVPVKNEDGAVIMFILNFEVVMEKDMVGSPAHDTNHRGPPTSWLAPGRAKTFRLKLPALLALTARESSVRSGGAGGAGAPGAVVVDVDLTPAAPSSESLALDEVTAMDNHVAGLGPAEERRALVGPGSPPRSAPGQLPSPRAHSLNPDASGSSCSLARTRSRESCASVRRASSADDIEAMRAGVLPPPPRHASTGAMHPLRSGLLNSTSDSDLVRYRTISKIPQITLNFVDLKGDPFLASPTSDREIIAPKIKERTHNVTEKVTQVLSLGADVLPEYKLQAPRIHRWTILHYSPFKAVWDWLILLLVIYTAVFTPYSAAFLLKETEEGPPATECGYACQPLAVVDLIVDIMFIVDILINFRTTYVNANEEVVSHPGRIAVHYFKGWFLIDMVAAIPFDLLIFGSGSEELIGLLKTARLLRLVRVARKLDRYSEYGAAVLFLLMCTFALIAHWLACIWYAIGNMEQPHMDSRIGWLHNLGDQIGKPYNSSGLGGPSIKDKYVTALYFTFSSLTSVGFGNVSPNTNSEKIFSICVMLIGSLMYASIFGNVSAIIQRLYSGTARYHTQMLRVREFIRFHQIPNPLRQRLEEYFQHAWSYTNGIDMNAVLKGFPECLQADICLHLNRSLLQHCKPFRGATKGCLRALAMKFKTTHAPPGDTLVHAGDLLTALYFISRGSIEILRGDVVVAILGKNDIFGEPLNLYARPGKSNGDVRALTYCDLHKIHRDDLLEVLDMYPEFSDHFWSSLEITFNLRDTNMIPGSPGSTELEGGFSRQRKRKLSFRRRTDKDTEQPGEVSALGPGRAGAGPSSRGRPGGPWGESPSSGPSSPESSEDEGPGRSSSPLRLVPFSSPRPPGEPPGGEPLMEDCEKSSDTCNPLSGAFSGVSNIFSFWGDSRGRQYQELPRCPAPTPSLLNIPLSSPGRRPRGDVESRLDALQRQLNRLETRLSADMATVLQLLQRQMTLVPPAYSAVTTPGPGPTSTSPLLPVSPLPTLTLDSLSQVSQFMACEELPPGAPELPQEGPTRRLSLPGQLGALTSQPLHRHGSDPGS

Going from `COc1ccc(OC)c(C2C(C(=O)O)c3ccccc3C(=O)N2C)c1` (centres unmarked) to `COc1cccc(C(=O)Nc2cccc3ccccc23)c1OC`, the “hERG current change (%, negative = inhibition) at 10uM” value falls from 12.2% to -5.93%.

Compared with `Cc1ccccc1-n1c(O)c(/C=N/NC(=O)c2ccncc2)c(=O)[nH]c1=O`, `C/C(=N/NC(=O)c1cnccn1)c1ccncc1` is higher in “hERG current change (%, negative = inhibition) at 10uM” value: 7.93% for the first, 19.4% for the second.

First: COc1ccc(NS(=O)(=O)c2cc(NC(=O)c3sccc3C)ccc2N2CCOCC2)cc1
Second: O=C(Nc1ccc(N2CCOCC2)c(S(=O)(=O)Nc2ccccc2Cl)c1)c1ccccc1
The “hERG current change (%, negative = inhibition) at 10uM” value of the first is higher: 24.1% for the first, -3.45% for the second.

Going from `O=C(Nc1ccc2nn(-c3ccccc3)nc2c1)c1cccs1` to `N#Cc1c(NC(=O)c2ccc(Br)o2)n(-c2ccccc2)c2nc3ccccc3nc12`, the “hERG current change (%, negative = inhibition) at 10uM” value rises from 0.462% to 5.45%.

Compared with `O=C(c1cccc(C(F)(F)F)c1)c1c[nH]c(C(=O)NCC2CCCO2)c1` (centres unmarked), `CC(C)Oc1cccc(C(=O)NC(=S)N2CCN(c3ccc(C(F)(F)F)cc3[N+](=O)[O-])CC2)c1` is higher in “hERG current change (%, negative = inhibition) at 10uM” value: -15.7% for the first, -10.5% for the second.

Going from `Cc1ccc2c(c1)N(C(=O)CCC(=O)N1CCN(c3ccccc3)CC1)CCO2` to `O=C(COc1ccccc1Cl)Nc1ccc(N2CCN(C(=O)c3ccccc3)CC2)cc1`, the “hERG current change (%, negative = inhibition) at 10uM” value rises from -43.8% to 1.5%.

Compared with `Cc1cc(NS(=O)(=O)c2ccc(-c3ccccc3)cc2)no1`, `Cc1noc(C)c1S(=O)(=O)Nc1ccccc1Oc1ccccc1` is lower in “hERG current change (%, negative = inhibition) at 10uM” value: 0.855% for the first, -1.27% for the second.

Compared with `CCc1c(C)n([O-])c2c([n+]1=O)CCC2`, `CCn1cc(/C=C2/SC(=S)NC2=O)c(C)n1` is lower in “hERG current change (%, negative = inhibition) at 10uM” value: 13.1% for the first, 7.91% for the second.

Going from `COc1cc(Cl)c(CN2CCC(CO)(CCOc3ccccc3)CC2)cc1OC` to `COc1ccc(CNc2nc3ccccc3n2Cc2ccccc2)cc1OC`, the “hERG current change (%, negative = inhibition) at 10uM” value rises from -80.7% to -44.7%.

Going from `O=C(Nc1ccc2c(c1)CCC2)c1ccc(F)cc1` to `CC(=O)NS(=O)(=O)c1ccc(NS(=O)(=O)c2ccc(F)cc2)cc1`, the “hERG current change (%, negative = inhibition) at 10uM” value rises from 0.514% to 15.3%.

First: Cc1ccc(N2CC(c3nc4ccccc4n3C)CC2=O)cc1C (centres unmarked)
Second: CSc1nc2ccc(S(=O)(=O)Nc3c(C)n(C)n(-c4ccccc4)c3=O)cc2s1
The “hERG current change (%, negative = inhibition) at 10uM” value of the first is lower: -13.4% for the first, -12% for the second.

First: CN(C)S(=O)(=O)c1ccc(S(=O)(=O)NCc2cccs2)cc1
Second: CN(C)S(=O)(=O)NC(c1ccccc1)c1ccccc1
The “hERG current change (%, negative = inhibition) at 10uM” value of the first is lower: -2.98% for the first, -2.78% for the second.

Going from `Cc1c(C=O)c(=O)n(-c2ccccc2)n1-c1ccccc1` to `O=c1c2ccccc2nc(COc2ccccc2)n1/N=C/c1ccco1`, the “hERG current change (%, negative = inhibition) at 10uM” value falls from 14% to -16.3%.

Compared with `Cc1ncc(CO)c(/C=N/NC(=S)Nc2cccc(Cl)c2)c1O`, `Cn1ncc(Cl)c1C(=O)Nc1ccc2c(c1)OCO2` is lower in “hERG current change (%, negative = inhibition) at 10uM” value: 18.9% for the first, 18.1% for the second.

First: COc1cc(OC)cc(C(=O)OC/C(O)=C(\C#N)c2nc3ccccc3[nH]2)c1
Second: COC(=O)c1ccccc1Oc1nc(Cl)cc(OC)n1
The “hERG current change (%, negative = inhibition) at 10uM” value of the first is higher: -1.13% for the first, -12.1% for the second.

First: Cc1ccc(CCNC(=O)Cc2ccc(NC3=NC4CS(=O)(=O)CC4S3)cc2)cc1 (centres unmarked)
Second: COc1ccc(C(=O)NCCc2nnc(SCC(=O)Nc3ccc(Br)cc3)n2C)cc1
The “hERG current change (%, negative = inhibition) at 10uM” value of the first is higher: 17.8% for the first, -16.6% for the second.

Going from `CC1=C(C(=O)Nc2cc(C(=O)N3CCN(c4cccc(C)c4)C(C)C3)ccc2C)SCCO1` (centres unmarked) to `Cc1cccc(-c2nnc(SCC(=O)Nc3cccc(C(=O)N4CCOCC4)c3)n2C)c1`, the “hERG current change (%, negative = inhibition) at 10uM” value rises from -12.5% to -5.45%.

Going from `Cc1cccc(C(=O)OCC(=O)Nc2c(C)nn(-c3ccccc3)c2C)c1O` to `COc1cccc(NC(=O)CN(C)C(=O)c2ccccc2Sc2ccccc2C#N)c1`, the “hERG current change (%, negative = inhibition) at 10uM” value rises from -16.7% to 2.55%.

First: CC(/C=C/C=C/c1ccccc1)=N/NC(=O)C(O)c1ccccc1 (centres unmarked)
Second: O=C(CS(=O)(=O)c1ccccc1)Nc1nc(-c2ccccc2)cs1
The “hERG current change (%, negative = inhibition) at 10uM” value of the first is higher: -4.45% for the first, -51.9% for the second.

First: CNc1nc(C)c(C(C)=O)cc1C#N
Second: Cc1nc(NC(=O)CSc2nc(N)cc(N)n2)sc1C
The “hERG current change (%, negative = inhibition) at 10uM” value of the first is higher: 14.6% for the first, -5.19% for the second.

Compared with `COc1ccc(-n2cnnc2SCC(=O)Nc2cccc([N+](=O)[O-])c2)cc1`, `COc1ccc(-c2cc(C(=O)Nc3ccccc3SC)no2)cc1` is lower in “hERG current change (%, negative = inhibition) at 10uM” value: 4.34% for the first, 0.498% for the second.

First: COC(/C=C/Nc1ccc(OC)cc1)=C(C#N)C#N
Second: COC(=O)CCNC(=O)c1ccc2nc(Cc3ccc(OC)cc3)oc2c1
The “hERG current change (%, negative = inhibition) at 10uM” value of the first is lower: -59.9% for the first, 13.2% for the second.

Compared with `CCCCOC(=O)CSC1=C(C#N)C(c2ccccc2OC)C(C#N)C(=O)N1` (centres unmarked), `CCCCOc1ccc(C(=O)N/C(=C\c2ccc([N+](=O)[O-])cc2)C(=O)OCc2ccco2)cc1` is lower in “hERG current change (%, negative = inhibition) at 10uM” value: 15.4% for the first, 8.44% for the second.

Compared with `COc1ncnc2c1sc1nc(-c3ccccc3)c3c(c12)CCCC3`, `COc1nc(Nc2ccc(-c3nc4ccccc4o3)cc2)nc(N2CCOCC2)n1` is lower in “hERG current change (%, negative = inhibition) at 10uM” value: 15.6% for the first, 11.8% for the second.

First: CCn1cc(C=C2C(=O)NC(=O)NC2=O)c2ccccc21
Second: O=c1cnnc(N/N=C/c2c[nH]c3ccccc23)[nH]1
The “hERG current change (%, negative = inhibition) at 10uM” value of the first is lower: 8.88% for the first, 23.9% for the second.

Compared with `Cc1cc(OCCCC(=O)NCCN2C(=O)S/C(=C\c3cccnc3)C2=O)ccc1Cl`, `CCOc1ccc(CCNC(=O)c2ccc(Cl)c(S(=O)(=O)N3CCOCC3)c2)cc1OCC` is lower in “hERG current change (%, negative = inhibition) at 10uM” value: -6.35% for the first, -20.4% for the second.

First: CCOc1ccc2nc(N3CCCN(C(=O)Nc4ccccc4C)CC3)c(C#N)cc2c1
Second: Cc1ccccc1NC(=O)CSc1nc(Nc2ccccc2)nc(N2CCOCC2)n1
The “hERG current change (%, negative = inhibition) at 10uM” value of the first is lower: -23.2% for the first, 5.35% for the second.

Going from `C/C(=N\NC(=O)CNc1cccc2ccccc12)c1ccc(Br)s1` to `N#CCSc1nnc(COc2cccc3ccccc23)n1-c1cccc(Cl)c1`, the “hERG current change (%, negative = inhibition) at 10uM” value rises from 6.57% to 8.77%.

Compared with `CC(C)Cc1nnc(NC(=O)c2ccc3c(=O)n4c(nc3c2)CCC4)s1`, `CCc1nnc(NC(=O)CCS(=O)(=O)c2ccc(C)cc2)s1` is higher in “hERG current change (%, negative = inhibition) at 10uM” value: -20.5% for the first, 12.7% for the second.

First: CCOC(=O)Cc1csc(NC(=O)Nc2ccc(C)cc2)n1
Second: CCOC(=O)CNC(=O)c1sc(NC(=O)c2cccc(F)c2)nc1C
The “hERG current change (%, negative = inhibition) at 10uM” value of the first is higher: 16.1% for the first, -0.522% for the second.

First: c1ccc2oc(SCc3nc4ccccc4s3)nc2c1
Second: c1ccc(CSc2nnc3ccc(-c4ccco4)nn23)nc1
The “hERG current change (%, negative = inhibition) at 10uM” value of the first is lower: -0.629% for the first, 9.26% for the second.

Going from `CCOC(=O)c1sc(NC(=O)CN2C(=O)NC3(CCCCCCC3)C2=O)c(C(=O)OCC)c1C` to `COc1cccc(CNC(=O)c2ccc(NC(=O)CC3SC(N4CCCC4)=NC3=O)cc2)c1` (centres unmarked), the “hERG current change (%, negative = inhibition) at 10uM” value rises from -5.88% to -4.93%.

First: C1COCCO1.CCOc1ccccc1N/C(=N/c1nc(C)cc(C)n1)NC(=O)Nc1ccc(Cl)c(Cl)c1
Second: Cc1cc(C(=O)N2CCCC(Nc3ccccc3)C2)c2ccc(F)cc2n1 (centres unmarked)
The “hERG current change (%, negative = inhibition) at 10uM” value of the first is lower: 2.03% for the first, 3.78% for the second.

First: C(=C\c1nc(-c2cccnc2)no1)/c1ccccc1
Second: O=[N+]([O-])c1ccc(N/N=C\c2cccnc2)nc1
The “hERG current change (%, negative = inhibition) at 10uM” value of the first is lower: 4.25% for the first, 19.9% for the second.

Compared with `CCN(Cc1ccccc1)Cc1ccc(OCc2ccccc2)c(OC)c1`, `CCOc1ccc(CCNC(=O)c2nnc(Cc3ccc(F)cc3)o2)cc1OCC` is higher in “hERG current change (%, negative = inhibition) at 10uM” value: -31.2% for the first, -1.78% for the second.

First: c1ccc(-c2c(-c3ccccc3)n(Cc3ccco3)c3ncnc(NCCCn4ccnc4)c23)cc1
Second: COCCCNc1nc2ccccc2nc1NS(=O)(=O)c1cccs1
The “hERG current change (%, negative = inhibition) at 10uM” value of the first is lower: -71.6% for the first, 18.5% for the second.

Going from `O=C(O)C1CCCCC1C(=O)NCCCN1CCOCC1` (centres unmarked) to `CC1CN(c2ccc(S(=O)(=O)N3CCCC3)cn2)CC(C)O1` (centres unmarked), the “hERG current change (%, negative = inhibition) at 10uM” value rises from -1.05% to 13.9%.

Going from `O=C(CSc1nnc(NC(=O)C2CC(=O)N(c3ccc(F)cc3)C2)s1)NCC1CCCO1` (centres unmarked) to `CC(C)CC(=O)Nc1ccc(N2CCN(C(=O)c3cccs3)CC2)cc1`, the “hERG current change (%, negative = inhibition) at 10uM” value falls from 14.7% to -42.9%.

Compared with `O=C(Nc1ccccc1N1CCCCC1)C1CCN(S(=O)(=O)c2cccc(C(F)(F)F)c2)CC1`, `O=C(Cn1cnc(S(=O)(=O)N2CCCC2)c1)Nc1cccc(Br)c1` is higher in “hERG current change (%, negative = inhibition) at 10uM” value: 2.96% for the first, 19.4% for the second.

First: CCOC(=O)Nc1nc(C)c(C(=O)N(C)C)s1
Second: CCCc1cc(C(N)=O)c(NC(=O)c2cc(C)on2)s1
The “hERG current change (%, negative = inhibition) at 10uM” value of the first is higher: -3.53% for the first, -16.9% for the second.

Going from `COc1ccc(/C=N/NC(=O)c2ccc(Cn3cc([N+](=O)[O-])cn3)o2)cc1O` to `CCOc1ccc(N2C(=O)CC(S/C(N)=N/N=C/c3cccs3)C2=O)cc1` (centres unmarked), the “hERG current change (%, negative = inhibition) at 10uM” value falls from 15.8% to 13.4%.

Compared with `CCN1CC=C2C(C#N)=C(N)C(C#N)(C#N)[C@H](c3ccoc3)[C@H]2C1`, `CC(C)[C@]1(c2ccc(Cl)cc2)ON(c2ccccc2C(F)(F)F)C1=O` is higher in “hERG current change (%, negative = inhibition) at 10uM” value: -8.21% for the first, 6.31% for the second.

Compared with `FC(F)(F)COc1ccc(-c2nnc(SCc3c(Cl)cccc3Cl)o2)cn1`, `Cc1ccc(-n2c(Cl)c(Cl)nc(Cl)c2=O)cc1` is lower in “hERG current change (%, negative = inhibition) at 10uM” value: 19.3% for the first, -2.2% for the second.
